Experimental data as given in patent publication US20070128217A1.

Biological target: SARS-CoV preparation (Frankfurt 1 strain) (SARS-CoV strain Frankfurt 1)

Row | Binder | OD492nm
1 | SC03-001 (scFv) scFv: SMAEVQLVESGGGLVKPGGSLRLSCAASGFTFSGYSMNWVRQAPGKGLEWVSSISGGSTYYADSRKGRFTISRDNSKNTLYLQMNNLRAEDTAVYYCARHRFRHVFDYWGQGTLVTVLEGTGGSGGTGSGTGTSELTQSPSSLSASVGDRVTIT[about 80 residues left out here]FGQGTKVEIKRAAA | 0.979 OD492nm
2 | SC03-002 (scFv) scFv: SMAEVQLVESGGGLVKPGGSLRLSCAASGFTFSGYSMSWVRQAPGKGLEWVGRTRNKANSYTTEYAASVKGRFTISRDDSKNSLYLQMNSLKTEDTAVYYCARYYSRSLKAFDYWGQGTLVTVLEGTGGSGGTGSGTGTSELTQSPSSLSASVGDRVTIT[about 80 residues left out here]FGQGTKVEIKRAAA | 0.841 OD492nm
3 | SC03-003 (scFv) scFv: SMAEVQLVESGGGLVQPGGSLRLSCAASGFTFSSYPMNWVRQAPGKGLEWVSAISGSGGSTYYADSVKGRFTISRDNSKNTLYLQMNSLRAEDTAVYYCARRSYFRRFDYWGQGTLVTVLEGTGGSGGTGSGTGTSELTQSPSSLSASVGDRVTIT[about 80 residues left out here]FGQGTKVEIKRAAA | 0.192 OD492nm
4 | SC03-005 (scFv) scFv: SMAEVQLVESGGGLIQPGGSLRLSCAASGFTFSGYTMSWVRQAPGQGLEWVSSISGGSTYYADSRKGRFTISRDNSKNTLYLQMNNLRAEDTAVYYCAKGGGRPYNPFDYWGQGTLVTVLEGTGGSGGTGSGTGTSELTQSPSSLSASVGDRVTIT[about 80 residues left out here]FGQGTKVEIKRAAA | 0.869 OD492nm
5 | SC03-008 (scFv) scFv: SMAEVQLVESGGGVVQPGRSLRLSCAASGFTFSSYPMNWVRQAPGKGLEWVSAISGSGGSTYYADSVKGRFTISRDNSKNTLYLQMNSLRAEDTAVYYCARRVRPRRFDYWGQGTLVTVLEGTGGSGGTGSGTGTSELTQSPSSLSASVGDRVTIT[about 80 residues left out here]FGQGTKVEIKRAAA | 0.358 OD492nm
6 | SC03-013 (scFv) scFv: AMAEVQLVESGGGLVQPGGSLRLSCAASGFTFSDHYMDWVRQAPGKGLEWVGRTRNKANSYTTEYAASVKGRFTISRDDSKNSLYLQMNSLKTEDTAVYYCAKGLTPLYFDYWGQGTLVTVSSGGGGSGGGGSGGGGSEIELTQSPSSLSASVGDRVTIT[about 80 residues left out here]FGQGTKVEIKRAAA | 0.979 OD492nm
